# Assay results: PubChem BioAssay AID504832 (National Center for Advancing Translational Sciences (NCATS), 2011)
# The campaign covered roughly 310,000 compounds. About 18,000 (5.8%) were called active. Inconclusive results, whose numbers are uncertain, are shown with a selection of clear calls. Calls follow the shape of the dose curve; as a rule, active = well fitted inhibition curve with a large enough effect; inconclusive = small, poorly fitted or top-dose-only effect, or another doubt; inactive = no such curve, though single readings can be large or run the other way. Potencies of inconclusive entries are left out as doubtful fits.
# Assay: Primary qHTS for delayed death inhibitors of the malarial parasite plastid, 48 hour incubation
# Conditions: P. falciparum luciferase growth in erythrocytes; series mostly up to 28.7 µM; activity change, negative = inhibition: at the top concentration
# Method in brief: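 Luciferase-expressing P. falciparum in infected erythrocytes (2% hematocrit, 0.1% parasitemia final) in RPMI 1640/0.5% Albumax were exposed to compound for 48 hours at 37 C, 5% CO2; growth read as luminescence.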
# % is scaled to controls: 0 for no effect and ±100 for the full control effect; potency is read from the fitted curve at half-maximal effect; tags tell the direction and shape of the fitted curve.
Structure (SMILES),Potency,"activity change, negative = inhibition"
COc1ccc(Cn2c(=O)c3[nH]cnc3n(-c3ccc(C)cc3)c2=O)cc1,"inconclusive [inhibitor, full curve]",
CC(NC(=O)c1ccc(NC(=O)CC2SC(N3CCCC3)=NC2=O)cc1)c1ccccc1 (stereo not drawn),"inconclusive [inhibitor, single point]",
C#CCNC(=O)C1=C[C@@H](c2ccc(C(F)(F)F)cc2)C[C@@H](OCCCCO)O1,"inconclusive [inhibitor, partial curve, poor fit]",
O=C(CSc1ccccc1F)NC(=O)NCc1ccco1,,inactive: -10.5%
CC(C)c1oc(=O)cc2c1[C@@H](O)[C@H]1OC(=O)[C@@]3(C)CC[C@@H](O)[C@@]2(C)C13 (stereo partly drawn),active: 2.94 µM,
COc1ccc(C)c2sc(N(CCN(C)C)C(=O)c3cccc(N4C(=O)CCC4=O)c3)nc12,"inconclusive [inhibitor, partial curve, poor fit]",
O=C(Oc1ccccc1)c1ccc(NC(=O)c2ccco2)cc1,"inconclusive [inhibitor, single point]",
O=C(CN1C(=O)CSc2ccc(S(=O)(=O)N3CCOCC3)cc21)NCc1ccc(Cl)cc1,,inactive: -2.46%
CC1CCCCN1C(=O)CSc1nnc2c(n1)[nH]c1ccc(F)cc12 (stereo not drawn),"inconclusive [inhibitor, partial curve]",
CCOC(=O)c1cnc2c(-c3ccccc3)c(-c3ccccc3)nn2c1C,"inconclusive [inhibitor, single point]",
CC(C)(C)S(=O)(=O)c1cnc(N2CCCC2)nc1N,,inactive: 6.55%
COCC1CCCCN1Cc1cn[nH]c1-c1ccc2cc(OC)ccc2c1 (stereo not drawn),,inactive: -6.3%
Cc1ccc(CS(=O)(=O)c2ncc(Cl)c(C(=O)Nc3nnc(C(C)C)s3)n2)cc1,,inactive: 20.5%
CN(CC(=O)NC1CCN(Cc2ccccc2)CC1)S(=O)(=O)c1ccc(Cl)cc1,"inconclusive [inhibitor, single point]",
Cc1cc(C(=O)NC2CC(C)(C)Cc3c2cnn3-c2ccc(F)cc2)no1 (stereo not drawn),"inconclusive [inhibitor, single point]",
O=C(CCc1nc(-c2ccccc2)no1)Nc1cccc(C(=O)NC2CC2)c1,"inconclusive [inhibitor, single point]",
COc1ccc(N(C)C(=O)CCC(=O)Nc2ccc3nc(N4CCOCC4)cc(C)c3c2)c(OC)c1,"inconclusive [inhibitor, single point]",
CCOC(=O)COc1ccc(Br)cc1/C=C/c1[nH]c(=O)[nH]c(=O)c1[N+](=O)[O-],"inconclusive [inhibitor, partial curve, poor fit]",
CNC(=O)C1=C(C)n2c(nc3ccccc32)NC1c1ccc(OC)cc1 (stereo not drawn),"inconclusive [inhibitor, partial curve, poor fit]",
COc1ccc([C@@H]2C[C@H](c3ccccc3)Oc3cc(OC)c(OC)c(OC)c32)cc1,active: 9.28 µM,
CC(C(=O)c1c[nH]c2ccccc12)N1CCSCC1 (stereo not drawn),,inactive: -9.83%
Nc1ccc2nn(-c3cc([N+](=O)[O-])ccc3O)nc2c1,,inactive: 9.02%
CC(C)(C)c1cc2nc3c(c(=O)n2[nH]1)CN(Cc1ccccc1)C3=O,,inactive: 33.2%

Structure (SMILES),Potency,"activity change, negative = inhibition"
COC(=O)c1ccccc1S(=O)(=O)N(Cc1ccco1)Cc1cc2cc(OC)ccc2[nH]c1=O,"inconclusive [inhibitor, single point]",
CN(C)CCNC(=O)c1ccc(Cl)s1,,inactive: 35%
COC(=O)c1ccc(NC(=O)c2cc(-c3ccccn3)nc3ccccc23)cc1,,inactive: 15.7%
CN(C1CCCCC1)S(=O)(=O)c1ccc(NC(=O)c2ccco2)cc1,"inconclusive [inhibitor, single point]",
CC(C)CN(C(=O)COC(=O)c1c2c(nc3ccccc13)CCC2)c1c(N)n(Cc2ccccc2)c(=O)[nH]c1=O,active: 8.28 µM,
CC(C)(C)OC(=O)n1cc(C(=O)c2ccccc2O)cn1,,inactive: 25.1%
c1ccc(-c2ccccc2-c2nc(-c3cccnc3)no2)cc1,"inconclusive [inhibitor, single point]",
Cc1cccc(N2C(=O)CC(N(C(=O)c3ccco3)c3cccc(C)c3)C2=O)c1 (stereo not drawn),,inactive: -16.1%
C=CCn1c(O)c(N=NC(=O)c2ccccc2NS(=O)(=O)c2cccs2)c2ccccc21,"inconclusive [inhibitor, partial curve, poor fit]",
Cc1ccccc1-c1nc(CS(=O)(=O)CC(=O)NCCCN2CC(C)CC(C)C2)c(C)o1 (stereo not drawn),"inconclusive [inhibitor, partial curve]",
N#Cc1cc(C(=O)c2cc(Br)ccc2O)cn(C2CCCCC2)c1=O,active: 1.47 µM,
COc1cc(-c2nn3c(-c4cccc(C)c4)nnc3s2)cc(OC)c1OC,"inconclusive [inhibitor, single point]",
CC(/C=C/c1ccco1)=N/NC(=O)C1COc2ccccc2O1 (stereo not drawn),"inconclusive [inhibitor, partial curve, poor fit]",
COC(=O)C1=C(c2ccc(F)cc2OCc2ccccc2)C[C@@H]2CC[C@H]1N2C,"inconclusive [inhibitor, single point]",
CCOC(=O)c1ccc(-c2ccc3[nH]c4ccccc4c(=O)c3c2)cc1F,"inconclusive [inhibitor, full curve, poor fit]",
CC(C)(C)c1cc(NC(=O)c2ccc(OC3CCCC3)cc2)no1,active: 11.7 µM,
Cc1cccc(Nc2nc(N)nc(CN3CCN(c4ccccc4)CC3)n2)c1,"inconclusive [inhibitor, partial curve]",
COc1ccc(C(=O)NCC(=O)OCC(=O)NCCC2=CCCCC2)cc1,"inconclusive [inhibitor, single point]",
O=C(Cc1cccs1)N1CCC(c2nc3c(nnn3Cc3ccc(F)cc3)c(=O)[nH]2)CC1,"inconclusive [inhibitor, partial curve]",
Cc1ccc(F)cc1NC(=O)N1c2ccccc2NC(=O)CC1C (stereo not drawn),,inactive: 53.4%
S=C(Nc1ccccc1)N1CCC(C2CCN(C(=S)Nc3ccccc3)CC2)CC1,"inconclusive [inhibitor, partial curve]",
c1cn2cc(-c3ccc4c(c3)OCO4)nc2s1,,inactive: -18.2%
CCn1c(=O)c2sccc2n2c(CCCC(=O)N3CCN(c4ccccn4)CC3)nnc12,active: 10.4 µM,

Structure (SMILES),Potency,"activity change, negative = inhibition"
O=C1N=C(N2CCOCC2)S/C1=C/c1ccc(-c2ccc(F)cc2)o1,"inconclusive [inhibitor, partial curve, poor fit]",
COc1ccccc1CNC(=O)CN(c1ccc(C)cc1)S(=O)(=O)c1c(C)nn(C)c1C,"inconclusive [inhibitor, partial curve]",
CCN1C(=O)[C@@H]2[C@@H](c3ccc(-c4ccc(F)cc4)c(OC)c3)N3CCCC[C@@]3(C(=O)OC)[C@@H]2C1=O,active: 10.4 µM,
O=c1[nH]c(CN2CCN(c3ccc(O)cc3)CC2)nc2scc(-c3ccc(Cl)cc3)c12,active: 3.7 µM,
CC1(C)N=C(SCC(=O)Nc2ccc(Cl)cc2Cl)C(c2ccccc2)=N1,"inconclusive [inhibitor, single point]",
COc1ccc(C2c3ccc(O)cc3Oc3ncn4nc(-c5ccccn5)nc4c32)cc1 (stereo not drawn),"inconclusive [inhibitor, partial curve]",
CC(C)OC(=O)C1C(=O)CC(C)(O)C(C(=O)OC(C)C)C1c1ccc([N+](=O)[O-])cc1 (stereo not drawn),"inconclusive [inhibitor, partial curve]",
COc1cc(C(=O)NCC(c2ccc(F)cc2)N2CCOCC2)ccc1OCc1ccccc1Cl (stereo not drawn),active: 5.22 µM,
CCOc1ccc(C(C)NC(=S)NC2CCCCC2)cc1 (stereo not drawn),"inconclusive [inhibitor, single point]",
O=C1c2cccnc2Nc2ccccc2N1CCCF,"inconclusive [inhibitor, single point]",
Clc1ccc(-n2cccc2CN2CCc3c([nH]c4ccccc34)C2c2ccccn2)nc1 (stereo not drawn),active: 9.28 µM,
COC(=O)c1sc(NC(=O)CSc2nnnn2C)nc1C,,inactive: 57.3%
Cc1cc([N+](=O)[O-])ccc1-c1ccc(/C=N/NC(=O)c2ccc(Br)o2)o1,"inconclusive [inhibitor, single point]",
COc1ccccc1CCC(=O)N(CCC1=CCCCC1)c1c(N)n(Cc2ccccc2)c(=O)[nH]c1=O,"inconclusive [inhibitor, partial curve, poor fit]",
Oc1ccccc1CNn1cnnc1,,inactive: 35.8%
COc1ccc(N(C(=O)CNC(=O)c2ccco2)C(C(=O)NCC2CCCO2)c2ccccc2)c(OC)c1 (stereo not drawn),,inactive: -8.99%
COc1ccc(CCNS(=O)(=O)c2ccc(Cl)cc2)cc1OC,,inactive: -2.02%
CCN1CCCC1Cn1cnc2c([nH]c3cc(OC)ccc32)c1=O (stereo not drawn),,inactive: 9.43%
Cc1ccc(C)c(NC(=S)NC2CC3CCC(C2)N3Cc2ccco2)c1 (stereo not drawn),"inconclusive [inhibitor, single point]",
O=c1c(-c2ccc(Br)cc2)coc2c(CN3CCOCC3)c(O)ccc12,active: 2.62 µM,
CC(C)(C)c1ccc(S(=O)(=O)N2CCN(CC(O)COCC3CCCO3)CC2)cc1 (stereo not drawn),"inconclusive [inhibitor, single point]",
CC(=O)NC1=NN(C(C)=O)C(C)(c2ccc(Br)cc2)S1 (stereo not drawn),"inconclusive [inhibitor, partial curve, poor fit]",
